# Measurements from article PMC12136788.
# The other results are listed elsewhere or left out.
# T1: UNK ZnF1-3 (human, UniProt Q9C0B0 31-174)
# T1 sequence: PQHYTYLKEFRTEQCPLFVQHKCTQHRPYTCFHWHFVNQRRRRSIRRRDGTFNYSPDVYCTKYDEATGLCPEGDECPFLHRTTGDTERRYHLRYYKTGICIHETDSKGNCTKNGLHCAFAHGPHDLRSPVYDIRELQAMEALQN
# B1: chr3:52014989:52014990:+_ENSG00000248487_ENST00000273596|hu_mus|FALSE|FALSE (ssRNA)
# RNA: GGGAGUUCUACAGUCCGACGAUCAGGUGAGUCCACUCAAGGCAAAUGGUCAAGGAAGGCAAGAAGGGCGAGGUGGAAGGCUUCUGGCUUGUGGAGGUAGCAGGCAUGACCUGCAUCAUGCAGCUUCACCACAGAGUGGUUGGGCAACAGAGGAUUGAGCAUCA
# B2: chr10:88199856:88199857:+_ENSMUSG00000060904_ENSMUST00000116234|mus_hu|FALSE|FALSE (ssRNA)
# RNA: GGGAGUUCUACAGUCCGACGAUCUGCAUCUGUGUUUGAAUAGUAACAUCUCCAGUAUGGCCUGAUACUUGUCUGUCCUCCUAAAUCCCAGACUUGGAAUUUAAGGUUUUUGUACGUCACCGUCUCUACAUUAAAUCCAAUGGUCAACAGAGGAUUGAGCAUCA
# B3: chr2:183853844:183853845:-_ENSG00000061676_ENST00000360982|hu_mus|motif|central (ssRNA)
# RNA: GGGAGUUCUACAGUCCGACGAUCGUGAAUGUGGAAAACUUCAUCCCGAAAGAGAGAGAGGCAAGAGCUACUCUGAAGAGCGGGCUUCCAAAGGUUCAGUGCGGUAGCCUCCGUAUUUAGCAUCCCAUGGCACAGAAUAAAGCCCAACAGAGGAUUGAGCAUCA
# B4: chr21:34922442:34922443:+_ENSG00000159140_ENST00000381679|hu_mus|motif|central (ssRNA)
# RNA: GGGAGUUCUACAGUCCGACGAUCCUCAGUAGGUGUCUCUGACACUAUCGUGAGGGUUUCUGAUGGCUCAACCACUUUUGCGGUGGGAAGCUCUACCAGCGUGGUCUUUGACGUCUCUGGAGGCAUAGUCUCCAAAGAUUUCAGCAACAGAGGAUUGAGCAUCA
# B5: chr11:116399779:116399780:-_ENSMUSG00000020802_ENSMUST00000082152|mus_mus|FALSE|FALSE (ssRNA)
# RNA: GGGAGUUCUACAGUCCGACGAUCAGGGCUGCAGCCUCUCCUGGUGUCCUAUCCUCUCUUAGAGAGUAAGUUCAAUAGGCCUAAGGGCUAUAACGCACUGGCAGGCCAGAGCCAGCCACAGCAGCCACAGCUCCGAGAUGGAGGCAACAGAGGAUUGAGCAUCA
# B6: chr3:103141349:103141350:+_ENSMUSG00000033014_ENSMUST00000106860|mus_mus|motif|central (ssRNA)
# RNA: GGGAGUUCUACAGUCCGACGAUCACUUGUAGGCUGAGGGGGUAGAUGACUGCCUGAGAUAUAUCUACUCAGUAGAUUAUCGGAACGGCUUGAGCCAGCAUCUUCCAACUGUAUAGGUGGGAUAUCUGGCAACGAUGGAAGGUUCAACAGAGGAUUGAGCAUCA
# B7: chr4:76721835:76721836:+_ENSG00000138768_ENST00000264904|hu_mus|hu_hu_hu_mus_True|88_108 (ssRNA)
# RNA: GGGAGUUCUACAGUCCGACGAUCGUUGGCUGGGGUUUUCUGAGACGUCUGGAAUACUAACUCAUGUUUGCUAAUAAAUCCUAGUUUCUCUAUGAAAUUCUCUUUGCCAAUCCUCUUCUCUAUUAGUUGCUUUAGUUUCUCUUUCAACAGAGGAUUGAGCAUCA
# B8: 46230419_46230624_985_CDS_ENSG00000189079_ENST00000334344|human|control|control (ssRNA)
# RNA: GGGAGUUCUACAGUCCGACGAUCCACUGCAAUCUGAAGUACCCGCUGUCCUUCAAUAUCGUUAAUGCCCAGCUUUCGAGGUGGAUGAAAUAAAGACUCCCAAAUCCAUUCUCCUGAUGUACCUUCAUGAGACUUGUUUCUGUCCAACAGAGGAUUGAGCAUCA
# B9: chr17:37360870:37360871:+_ENSG00000108298_ENST00000225430|hu_hu|FALSE|FALSE (ssRNA)
# RNA: GGGAGUUCUACAGUCCGACGAUCCAGUAUGUACAGACAAAGUGGGAGGUUUUAUUUCUUGGUCUCUUCCUCCUUGGAUAAAGUCUUGAUGAUCUCCUCCUUCUUGGCCUGGAGGCGCUCUUCACGGCGCUUGCGUGCUUCCUUCAACAGAGGAUUGAGCAUCA
# B10: chr10:71921676:71921677:-_ENSG00000079332_ENST00000373241|hu_hu|FALSE|FALSE (ssRNA)
# RNA: GGGAGUUCUACAGUCCGACGAUCCACACUGCUGAAGCCAUUGUAGAUCCACUCAAAGAUGAAAGACAUUAUUAAUGCUUACUACGGCCUGAGGGGCUCCUCCGGCAAAACAGCGGCUGGCUCGGACCCUCCCUCAGAGCACACCAACAGAGGAUUGAGCAUCA
# B11: chr7:135612270:135612271:-_ENSG00000105887_ENST00000393085|hu_mus|hu_hu_hu_mus_False|38_58 (ssRNA)
# RNA: GGGAGUUCUACAGUCCGACGAUCGUUUUUUUCUGAGAUGUUAAAUAGUACUUCAGUGGAAAACAAAACUUAACCUUUCGCUAAUGCGUGUUGUACCAGAAAGCAAAAUUUUAGCUUCAUUUAUUCAAAAAUAUUAACAUUAAGCAACAGAGGAUUGAGCAUCA
# B12: chr14:45963330:45963331:+_ENSMUSG00000021832_ENSMUST00000022380|perfect_dup|FALSE|FALSE (ssRNA)
# RNA: GGGAGUUCUACAGUCCGACGAUCGAUUUUCAAUAUAUCUAAUCUUGCUUGUUCAUUUGGUAAAUCGAUAUGUAUUUUUCUAUCUAAUCUUCCUGGGCGCAGCAAAGCAGGAUCCAGUGUAUCUGGUCUGUUUGUAGCCAUGAUCAACAGAGGAUUGAGCAUCA
# B13: 136597645_136599121_1188_CDS_ENSG00000029363_ENST00000527536|human|control|control (ssRNA)
# RNA: GGGAGUUCUACAGUCCGACGAUCCCUUUUUAAGAACUUCCCAGUCUUUGCAGUUUCCUGAUCUCCACCAUCAGGAUAAAACGAGGAACGGCCCCUAGACUCAUCUCUUGGAGCAUUCUGUGGUGCGAUUGUCUUUGCAGGACUCAACAGAGGAUUGAGCAUCA
# B14: chr9:109012998:109012999:+_ENSMUSG00000053646_ENSMUST00000072093|mus_mus|FALSE|FALSE (ssRNA)
# RNA: GGGAGUUCUACAGUCCGACGAUCGUUGCCCAUCUGUACCGUGAACUCAGGCAAAGCAUCUGGAGCCUCUCGGAGGGCAUGGGGAUGUGGCAGGGGCUGCUCCACAGGGGGCUCACAGUACAGGUGGUUCCGGGUCAGUGUCUUCAACAGAGGAUUGAGCAUCA
# B15: chr7:116176368:116176369:+_ENSMUSG00000031028_ENSMUST00000033341|mus_hu|motif|central (ssRNA)
# RNA: GGGAGUUCUACAGUCCGACGAUCAGACACACACAUACACAGACGGACACAGAGCACCUUGGAGCCAGAAGGAAAGGAAAGCGGGACUUGGAGAAGAGUUGGGGAAGUGAACUUCACCACUCUGCAGAAUUGUUCUGGGGCAGACAACAGAGGAUUGAGCAUCA
# B16: chrX:71549400:71549401:+_ENSMUSG00000019087_ENSMUST00000019231|mus_hu|mus_mus_mus_hu_False|18_88 (ssRNA)
# RNA: GGGAGUUCUACAGUCCGACGAUCGCAGUAGGAAGAGGGAAGCUCUUCAUCCACUGUCGCUGCAGGGUGGGAAAGCAACAACACGGACACCGUCCCACCCUCAACCCCCCCACUGGCAUGUCACACAACAAUCUGGGUCAAAGACAACAGAGGAUUGAGCAUCA
# B17: chr19:12856456:12856457:+_ENSG00000198356_ENST00000357332|hu_mus|FALSE|FALSE (ssRNA)
# RNA: GGGAGUUCUACAGUCCGACGAUCCACGAUGGUCGGGAAGUUCAGGAGCCUGAGUGUAUGGCCGGUGGGUGCUGUGUCGAACACUACCACUGAGAAGUUCAUGCCUUUCACCAGCCUCAUGACCUCAGCAUAACUCAUGGCUUCCAACAGAGGAUUGAGCAUCA
# B18: chr12:98992399:98992400:+_ENSG00000075415_ENST00000552981|hu_hu|FALSE|FALSE (ssRNA)
# RNA: GGGAGUUCUACAGUCCGACGAUCUUUGGGAGCUGCAUCCCUCAAAGUGUUGGCAUAACCUGGCUGGGUUUGAAUUCGAACCUUAGCAGCUUCCAUAGGAGCCAGGGCAAUGUCAGCAAAGAAUUCAGCACUGGCAGAGGCAGCCAACAGAGGAUUGAGCAUCA
# B19: chr2:49626764:49626765:+_ENSMUSG00000026764_ENSMUST00000028102|mus_mus|FALSE|FALSE (ssRNA)
# RNA: GGGAGUUCUACAGUCCGACGAUCCAAGCACGUAUCUGUGCACACAAAUUCUACACAGCGCAAACACCUGAAUCUGGUGUACUACAGACGGCUGGGCAAGCAAGUGUAAAAAGAAACGGAAACUGUAUAGGAGGGGACAGAAAGCAACAGAGGAUUGAGCAUCA
# B20: chr2:155973683:155973684:-_ENSMUSG00000027620_ENSMUST00000109587|mus_hu|motif|central (ssRNA)
# RNA: GGGAGUUCUACAGUCCGACGAUCCAUGAACAUUUUAAAAGGCAGAACAAGAGAACAGUUUUGUAUACAGUGGGAUUUACGGUUUAGGGAGAAUGAGCACACUGCAUUCCUGUUAACAUUUUUAUUUUUUCAAGGUAACAGGAACAACAGAGGAUUGAGCAUCA
# B21: 6378618_6387458_547_CDS_ENSG00000097021_ENST00000608083|human|control|control (ssRNA)
# RNA: GGGAGUUCUACAGUCCGACGAUCGUAGCUGACAGUGUUCGGCUCUGGGUUGAGGACUGGCUGGACGAUGUCCCCGUUCCUCCACUUGGUCUCCAUGCGCUCCAGCUUCUGGGCUUCAUACCGCUUCCGGCCCUCCUCCUCCUGCAACAGAGGAUUGAGCAUCA
# B22: chr2:122217683:122217684:-_ENSG00000074054_ENST00000409078|hu_mus|motif|central (ssRNA)
# RNA: GGGAGUUCUACAGUCCGACGAUCACGCAAGUGUUGAAAGAAGUUAUCGUACUCAGCAGCCCCAGCCAAGAGUAACGAUCGGAUCUUUUUUAGAGCAUUUACUCUCUGCUCCCAGUCAUGCUUGUCAUCUGACAGGAUUUCUCUCAACAGAGGAUUGAGCAUCA
# Molecular target: T1, UNK ZnF1-3
# Experiment: nsRBNS (natural sequence RNA bind-n-seq); RBNS binding buffer (assumed for nsRBNS): 25 mM Tris pH 7.5, 150 mM KCl, 3 mM MgCl2, 0.01% Triton X-100, 500 ug/ml BSA, 20 U/ml SUPERase-In, 4 C; UNK is unkempt and MSI1 is Musashi-1; names of the RNAs are library labels; protein concentration not given here; high values mean tight binding
row,Binder,binding signal
1,B1,1.89 enrichment R
2,B2,0.714 enrichment R
3,B3,1.85 enrichment R
4,B4,0.351 enrichment R
5,B5,0.806 enrichment R
6,B6,1.02 enrichment R
7,B7,0.428 enrichment R
8,B8,0.859 enrichment R
9,B9,0.649 enrichment R
10,B10,1.19 enrichment R
11,B11,0.573 enrichment R
12,B12,0.578 enrichment R
13,B13,0.776 enrichment R
14,B14,0.77 enrichment R
15,B15,2.65 enrichment R
16,B16,0.927 enrichment R
17,B17,0.738 enrichment R
18,B18,1.1 enrichment R
19,B19,1.79 enrichment R
20,B20,1.32 enrichment R
21,B21,0.536 enrichment R
22,B22,0.734 enrichment R
